The record followed here is the RNAGym collection of RNA variant scans (doi:10.1093/nar/gkz1192).

B1: CPEB3 Ribozyme (parent)
chain: UAACAGGGGGCCACAGCAGAAGCGUUCACGUCGCAGCCCCUGUCAGAUUCUGGUGAAUCUGCGAAUUCUGCUGUAUAUCUC

The source gives no read counts; variants with many changes may rest on few reads.

This data set covers variants of B1. In words: self-cleavage, relative activity (ratio to wild type); higher = more cleavage; in vitro, sequencing. In a few lines:
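Barcoded CPEB3 ribozyme mutants, produced by rounds of error-prone PCR, self-cleaved while being transcribed with T7 RNA polymerase for 5 hours at 37°C and during a subsequent 15 min DNase I step before EDTA was added. Sequencing of template-switched cDNA on Illumina gave cleaved and total reads, and DNA sequencing assigned barcodes to variants. Each variant's relative activity is its cleaved/total read fraction divided by the unmutated ribozyme's fraction, averaged across three batches. A variant needed a minimum of 5 reads.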
With UAACGGGGGGCCACAGCAGAAGCGUUCACGUCGCAGCCCCUGUCGGAUUCUGGUGGGUCUGCGAAUUCAGCUGUAUAUCUC [A5G A45G A56G A57G U69A], the self-cleavage is 0.08. The result for UAACGGGGGGCCACAGCAGAAGCGUUCACGUCGCAGCCCCUGUCAGAUUCUGGUGAAUCUGCGAAUUCUGCUGUUUGUCUC [A5G A75U A77G] reads 0.59. UAACGGGGGGCCACAGCAGAAGCGUUCACGUCGCAGCCCCUGUCGGAUUCUGGCGAAUCUGCGAAUUCCGCUGUAUAUCUC [A5G A45G U54C U69C]: the self-cleavage was 0.22.

For UAACGGGGGGCCACAGCAGAAGCGUUCUCGUCGCGGCCCCUGUCAGAUUCUGGUGAAUCUGCGGAUUCUGCUGUAUAUCUC [A5G A28U A35G A64G], the self-cleavage is 1.12. With UAACGGGGGGCCACAGCAGAAGCGUUCACGUCGCAGCCCCUGUCAGUUUCUGAUGUAUCCGCGAAUUCUGCCGUAUAUCUC [A5G A47U G53A A56U U60C U72C] the figure was 0.09; with UAACGGGGGGCUACAGCAGAAGUGUUCACGUCGCAGCCCCUGUCUGAUUCUGGUGAAUCAGCGAAUCCUGCUGUAUAUCUC [A5G C12U C23U A45U U60A U67C], 0.08; with UAACGGGGGGCCACAGCAGAAGCGUUCACGUCGCAGCCCCUGUCAGAUUCUGGUGUAUCUGCGAAUUCUGCAGUAUAUCUC [A5G A56U U72A], 0.16.

UAACGGGGGGCCACAGCAGAAGCGUUCACGUCGCUGCCCCUGACAGAUUCUGGUGAAUCUGCUAAUUCUGCUGUAUAUCUC [A5G A35U U43A G63U]: the self-cleavage was 0.33. For UAACGGGGGGCCACAGCAGAAGCGUUCACGUCGCAGCCCCUGUCUGAUUCUGGUGUAUCUGCGAAUUCUGCUGUACAUCUC [A5G A45U A56U U76C], the self-cleavage was found to be 0.11.

UAACGGGGGGCCACAGCAGAAGCGUUCACGUCGCAGCCCCUGUCAGGUUCUGGUGAAUCGGCGAAUUCUGCUGUAUAUCUC [A5G A47G U60G]: the self-cleavage was found to be 0.54. Take UAACGGGGGGCCACAGCAGAAGCGUUCACGUCGCGGCCCCCGUCUGAUUCUGGUGAAUCUGCGAAUUCUGCUGCAUAUCUC [A5G A35G U41C A45U U74C]: the self-cleavage was 1.11. As for UAACGGGGGGCCACAGCAGAAGCGUUCACGUCGCAGCCCCUGUCAGGUUCUGGUGAAUCUGCGAAUACUGCUGUAGAUCUC [A5G A47G U67A U76G], the self-cleavage was determined as 0.06. With UAACGGGGGGCCACAGCAGAAGCGUUCACGUCGCAGCCCCUGUCAGAUUCUGGUGUAUCUGCGAAUUCAGCUGUAUAUCUC [A5G A56U U69A] the figure was 0.39; with UAACGGGGGGCCACAGCAGAAGCGUUCUCGUCGCAGCCCCUAUCAGGUUCUGGUGAAUCUGCGAAUUCUGCUGUAUGUCUC [A5G A28U G42A A47G A77G], 0.05; with UAACGGGGGGCCACAGCAGAAGCGUUCUCGACGCAGCCCCUGUCAGAUUCUGGUGAAUCUGCGAAUUCUGCCGUAUAUCUC [A5G A28U U31A U72C], 0.14.

On to UAACGGGGGGCCACAGCAGAAGCGUUCUCGUCGCAGCCCCUGUCAGAUUCUGGUGAAUCUGCGAAUUCUGCUGUAUACCUC [A5G A28U U78C], for which the self-cleavage amounted to 0.69.

In the case of UAACGGGGGGCCACAGCAGAAGCGUUCACGUCGCAGCCCCUGUCAGGUUCUGGUGAAUCUGCGAAUUCUGCUGUAUACCUC [A5G A47G U78C], the self-cleavage is 0.53. The result for UAACGGGGGGUCACAGCAGAAGCGUUCACGUCGCAGCCCGUGUCAGAUUCUGGUGAUUCUGCGAGUUCUGCUGUAUAUCUC [A5G C11U C40G A57U A65G] reads 0.26; that for UAACGGGGGGCCACAGCAGAAGCGUUCACGUCGCAGCCCCUGUCGGAUUCUGGUGAAUCUGCGAAUCCUGCUGUAUAGCUC [A5G A45G U67C U78G], 0.16.

For UAACGGGGGGCCAAAGCAGAAGCGUUCACAUCGCAGCCCCUGUCAGAUUCUGGUGAAUCUGCGAAUUCUGCUGUAUAUCUC [A5G C14A G30A], the self-cleavage was determined as 0.34. With UAACGGGGGGCCACAGCAGAAGCGUUCACGUCGCAGCCCCUGUCGGAUUCUGGUGAAUCCGCGAACUCUGCUGUAUAUCUC [A5G A45G U60C U66C] the figure was 0.12; with UAACGGGGGGCCACAGCAGAAGCGUUCACGUCGCAGCCCCUGUCAGAUUCUGGUGGAUGUGUGAAUUCUGCUGUAUAUCUC [A5G A56G C59G C62U], 0.26; with UAACGGGGGGCCACAGCAGAAGCGUUCUCGUCGCAGCCCCUGUCAGAUUCUGGUGAGUCUGCGAAUUCUGCUGUAUAUCUC [A5G A28U A57G], 0.18.

Consider UAACGGGGGGCCACAGCAGAAGCGUUCACGUCGCAGCCCCUGUCAGAUUCUGGUGAAUCUGCGAAUUCUGCUGUGUACCUC [A5G A75G U78C], for which the self-cleavage came to 0.22.

As for UAACGGGGGGCCACAGCAGAAGCGUUCACGUCGCAGCCCCUGUCUGAUUCUGGUGAAUCUGCGAAUUAUGCUGUAUAUCUA [A5G A45U C68A C81A], the self-cleavage came out at 0.1. The result for UAACGGGGGGCCACAGCAGAAGCGUUCUCGUCGCAGCCCCUGUCAGAUUCUGGUGAAUCCGCGAAUUCUGCUGUAUAUCUC [A5G A28U U60C] reads 0.1.

For UAACGGGGGGCCACAGCAGAAGCGUUCACGUCGCGGCCCCUGUCAGAUUCUGGUGAAUCUGCGAAUGCUGCUGUACGUCUC [A5G A35G U67G U76C A77G], the self-cleavage stood at 0.98. The result for UAACGGGGGGCCACAGCAGAAGCGUUCACGUCGCAGCCCCUGUCUGAUUCUGGUGAAUCUGUGAAUUCUGCUGUACAUCUC [A5G A45U C62U U76C] reads 0.12.

For the variant UAACGGGGGGCCACAGCAGAAGCGUUCACGUCGCAGCCCCUGUCUGAUUCUGGUGAAUCCGCGAGUUCUGCUGUAUAUCUC [A5G A45U U60C A65G], the self-cleavage came to 0.17. With UAACGGGGGGCCACAGCAGAAGCGUUCACGUCGCUGCCCCUGUCAGAUUCGGGUGAAUCUGCGAAUUCUGCUGUAUAUCUC [A5G A35U U51G] the figure was 0.19; with UAACGGGGGGCCACAGCAGAAGCGUUCACGUCGCAGCCCCUGUCUGAUUCUGGUGAAUCUGCGAAUUCGGCUGUAUAUCUC [A5G A45U U69G], 0.29; with UAACGGGGGGCCACAGCAGAAGCGUUCACGUCGCGGCCCCUGUCAGAUUCCGGUGAAUCUGCGAAUACUGCCGUAUAUCCC [A5G A35G U51C U67A U72C U80C], 0.25.

Turning to UAACGGGGGGCUACAGCGGAAGCGUUCUCGUCGCAGCCCCUGUCAGAUUCUGGUGAAUCUGCGAAUUCUGCUGUAUAUCUC [A5G C12U A18G A28U], the self-cleavage turned out to be 0.22.

With UAACGGGGGGACACAGCAGAAGCGUUCACGUCGCAGCCCCUGUCAGAUUCUGGUGAAUCUGUGUAUUCUGCUGUAUAUCUC [A5G C11A C62U A64U], the self-cleavage is 0.16.
